# According to PubChem BioAssay AID1476 (National Center for Advancing Translational Sciences (NCATS), 2009):
# The whole screen tested about 200,000 compounds, of which about 4,500 (2.2%) were called active. Inconclusive means that the source gave no clear call. Such entries were picked first, then a sample of the others. The call rests on the fitted dose curve; in most records, active means well fitted inhibition curve with a large enough effect; inconclusive means small, poorly fitted or top-dose-only effect, or effect the other way; inactive means flat fitted curve, though single readings scatter. Where the call is inconclusive, the potency comes from a doubtful curve fit.
# Target: Cruzipain (Trypanosoma cruzi) (UniProt P25779)
# UniProt P25779, sequence (P25779 whole entry, looked up): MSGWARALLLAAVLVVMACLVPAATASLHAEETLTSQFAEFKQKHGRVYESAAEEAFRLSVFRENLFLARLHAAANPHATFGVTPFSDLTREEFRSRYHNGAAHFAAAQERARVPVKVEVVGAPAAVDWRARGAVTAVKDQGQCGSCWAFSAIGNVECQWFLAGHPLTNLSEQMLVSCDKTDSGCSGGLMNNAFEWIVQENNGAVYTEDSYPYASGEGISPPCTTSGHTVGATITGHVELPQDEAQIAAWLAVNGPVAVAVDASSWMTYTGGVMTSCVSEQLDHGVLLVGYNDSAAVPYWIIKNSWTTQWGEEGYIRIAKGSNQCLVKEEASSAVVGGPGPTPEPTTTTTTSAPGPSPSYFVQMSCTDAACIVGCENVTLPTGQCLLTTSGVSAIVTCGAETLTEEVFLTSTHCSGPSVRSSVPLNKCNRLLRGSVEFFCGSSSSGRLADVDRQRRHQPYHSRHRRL
# Assay: qHTS Assay for Promiscuous and Specific Inhibitors of Cruzain (without detergent); further: nearly all actives have a fitted effect of over 40% in size;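 on max response, negative = inhibition: plate controls were enzyme without inhibitor for no effect and buffer without enzyme for full effect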
# Conditions: purified cruzain, Z-FR-AMC fluorescence, no detergent
# In short: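 Purified cruzain at 1.5 nM, pre-incubated 15 min with compound at room temperature in 100 mM sodium acetate pH 5.5, 5 mM DTT, 0.00005% Triton X-100. Reaction started with 2 uM Z-FR-AMC; AMC fluorescence increase over 60 s gives rate.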
# Potency means the concentration at half of the fitted maximal effect; tags describe the fitted curve by direction and shape.
SMILES,Potency,"max response, negative = inhibition"
Cc1ccc(NC(=O)c2ccccc2NS(=O)(=O)c2ccc(F)cc2)cc1S(=O)(=O)N1CCCCC1,"inconclusive: 31.6 µM [inhibitor, single point]",
Cc1ccc(OCCCC(=O)Nc2sc3c(c2C(N)=O)CCC(C)C3)cc1 (centres undefined),,inactive: 23%
COC(=O)[C@@]1(Cc2ccc(F)cc2)[C@H]2c3cc(C(=O)N4CCCC4)n(Cc4ccc(C)o4)c3C[C@H]2CN1C(=O)c1ccccc1,"inconclusive: 31.6 µM [activator, single point]",
COc1ccccc1CNc1ncnc2ccc(-c3ccccc3C#N)cc12,"inconclusive: 39.8 µM [activator, single point]",
CCc1ccc(CNC(=O)c2ccc(Cn3c(=O)c4cccn4c4cccnc43)cc2)cc1,,inactive: 0.244%
COc1ccc(NC(=O)CC2C(=O)N(CCc3ccccc3)C(=S)N2Cc2cccnc2)cc1 (centres undefined),"inconclusive: 25.1 µM [activator, single point]",
CCOC(=O)c1[nH]c(C)c(C(=O)Nc2cc(Cl)ccc2C)c1C,"inconclusive: 25.1 µM [inhibitor, single point]",
CC(/C=N/n1c(-c2ccc(Cl)cc2)n[nH]c1=S)=C\c1ccco1,"inconclusive: 39.8 µM [inhibitor, single point]",
Cc1cc(F)ccc1NC(=O)C1CCCN(C(=O)c2cnn(-c3ccccc3)c2-n2cccc2)C1 (centres undefined),"inconclusive: 39.8 µM [activator, single point]",
COc1cccc(/C(O)=C/c2nc3ccc(C(=O)NCCc4cccc(C)c4)cc3[nH]c2=O)c1,active: 20 µM,
Cc1cc(Cl)ccc1NC(=O)C1CCCN(c2nnc(C)c3c(C)n(-c4ccccc4)nc23)C1 (centres undefined),,inactive: -10.7%
Cc1nc2ccc(NC(=O)c3cc(S(=O)(=O)N(C)c4ccccc4)ccc3Cl)cc2s1,"inconclusive: 25.1 µM [inhibitor, single point]",
Cc1cc(C)c(NC(=O)C(C)n2nc(C)c3sc4ccccc4c3c2=O)c(C)c1 (centres undefined),,inactive: -8.58%
COc1cccc(N2CC(NC(=O)c3cccs3)CC2=O)c1 (centres undefined),,inactive: 8.04%
CCN1C(=O)/C(=C\N(C(C)=O)c2ccccc2)OC1=S,"inconclusive: 25.1 µM [activator, partial curve]",
CCN(CCCNC(=O)CCc1nc(-c2ccc(C)cc2)no1)c1cccc(C)c1,"inconclusive: 20 µM [activator, single point]",
Cc1ccccc1NC(=O)CSc1nccn1C,,inactive: 9.68%
Cc1ccc(S(=O)(=O)N2CCC(CN3C(=O)c4cccc5cccc(c45)C3=O)CC2)cc1,"inconclusive: 39.8 µM [inhibitor, single point]",
CCOC(=O)C1=C(N)n2c(s/c(=C\c3cccnc3)c2=O)=C(C(=O)OCC)C1c1cccnc1 (centres undefined),"inconclusive: 39.8 µM [activator, single point]",
CC(C)Oc1ccc(C(=O)NCCc2csc(-c3cccc(F)c3)n2)cc1,"inconclusive: 39.8 µM [activator, single point]",

SMILES,Potency,"max response, negative = inhibition"
Cc1cc(C)nc(Nc2n[nH]c(COc3ccc(Cl)cc3)n2)n1,"inconclusive: 31.6 µM [inhibitor, single point]",
Nc1c(C(=O)NC2CCCC2)c2nc3ccccc3nc2n1N,"inconclusive: 39.8 µM [activator, single point]",
COC(=O)[C@@]1(Cc2ccc(OC)cc2)[C@H]2c3cc(C(=O)N4CCCC4)n(CCc4ccc(OC)c(Br)c4)c3C[C@H]2CN1C(=O)c1ccccc1,"inconclusive: 15.8 µM [activator, partial curve]",
Cc1ccc(S(=O)(=O)N2CCN(CC(=O)NC3CCCc4ccccc43)CC2)cc1C (centres undefined),"inconclusive: 39.8 µM [activator, single point]",
O=c1[nH]c2cc(Cl)ccc2c(O)c1-c1cccc(Oc2ccccc2)c1,active: 3.16 µM,
COC(=O)[C@@]1(Cc2ccc(OC)cc2)[C@H]2c3cc(C(=O)N(C)C)n(CCN4CNCC4=O)c3C[C@H]2CN1C(=O)c1ccccc1,"inconclusive: 3.16 µM [activator, single point]",
CCN(c1cccc(C)c1)C(C(=O)Nc1ccc(OC)cc1)c1cc2c(cc1[N+](=O)[O-])OCO2 (centres undefined),"inconclusive: 31.6 µM [inhibitor, single point]",
CCOc1cccc(C(=O)N(Cc2ccc(C(C)C)cc2)C2CCS(=O)(=O)C2)c1 (centres undefined),"inconclusive: 31.6 µM [activator, single point]",
COc1cccc(-c2nccc(NCc3ccccc3)n2)c1,,inactive: 4.49%
CCCN(Cc1cc2cccc(C)c2[nH]c1=O)S(C)(=O)=O,"inconclusive: 1.58 µM [inhibitor, partial curve]",
COc1cccc([C@@H]2Oc3ccc(OC)cc3C[C@H]2OC(=O)NS(=O)(=O)c2ccc(C)cc2)c1,,inactive: -3.25%
CCCN1CCN(CCCNC(=O)c2cc3c(s2)-c2c(C)cccc2OC3)CC1,"inconclusive: 3.98 µM [activator, partial curve]",
COc1ccc(S(=O)(=O)N2CCOCC2)cc1NC(=O)COC(=O)C1COc2ccccc2O1 (centres undefined),"inconclusive: 31.6 µM [activator, single point]",
CC(=O)N1CCCc2cc(S(=O)(=O)Nc3ccc4c(c3)OCO4)ccc21,"inconclusive: 25.1 µM [inhibitor, single point]",
COc1ccc(-c2nc3c(c(=O)[nH]c(=O)n3Cc3ccccc3)n2Cc2ccccc2)cc1,"inconclusive: 31.6 µM [inhibitor, single point]",
CCOC(=O)c1ccc(-n2c(N)c(C(=O)NCc3ccco3)sc2=S)cc1,"inconclusive: 31.6 µM [inhibitor, single point]",
Cc1ccc(S(=O)(=O)Nc2cc3c(C(=O)OCc4ccccc4)c(C)oc3c3ccccc23)cc1,active: 7.94 µM,
N#Cc1c(N)nc(SCC(=O)NC2CCCCC2)c(C#N)c1-c1ccc(Cl)cc1,active: 15.8 µM,
Cc1ccc(Nc2nc(-c3sc(NC(=O)c4cccc(Cl)c4)nc3C)cs2)cc1,active: 3.98 µM,
